# The IC50 comes from the fitted curve, where viability falls to half of the control; fits outside the tested doses are given as limits. For AUC the same curve is integrated over the 256-fold range of doses and scaled to a fraction; values near 1 show little effect. For some of these results: An inferred top dose is not printed in the source and was worked back from the curve model.
# Key:
# Experiment in all cases: Viability of human cancer cell lines after 72 h of drug (GDSC screen)
# OSI-027 = compound: COc1cccc2cc(-c3nc([C@H]4CC[C@H](C(=O)O)CC4)n4ncnc(N)c34)[nH]c12 [OSI-027]; settings: top dose 20 µM
# Protocol: (§1)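 Human cancer cell lines in 384-well plates, medium with 10% serum, drug for 72 h over a 256-fold dose range (nine 2-fold or five 4-fold steps up to the top dose). Adherent lines were fixed and stained with the nucleic acid dye Syto60, suspension lines read with resazurin; signal relative to control wells, capped at 0 and 100%. One two-parameter sigmoid per drug and line, fitted in a mixed model over all curves with the slope shared within a line.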
# BIX02189 = compound: CN(C)Cc1cccc(N=C(c2ccccc2)c2c(O)[nH]c3cc(C(=O)N(C)C)ccc23)c1 [BIX02189]; settings: top dose 20 µM; top dose inferred
# Protocol: as §1
# UNC1215 = compound: O=C(c1ccc(C(=O)N2CCC(N3CCCC3)CC2)c(Nc2ccccc2)c1)N1CCC(N2CCCC2)CC1 [UNC1215]; settings: top dose 1 µM; top dose inferred
# Protocol: as §1
# 17-AAG = compound: C=CCNC1=C2C[C@@H](C)C[C@H](OC)[C@H](O)[C@@H](C)/C=C(\C)[C@H](OC(N)=O)[C@@H](OC)/C=C\C=C(/C)C(=O)NC(=CC1=O)C2=O [17-AAG]; settings: top dose 1 µM
# Protocol: as §1
# Doxorubicin = compound: COc1cccc2c1C(=O)c1c(O)c3c(c(O)c1C2=O)C[C@@](O)(C(=O)CO)C[C@@H]3O[C@H]1C[C@H](N)[C@H](O)[C@H](C)O1 [Doxorubicin]; settings: top dose 1.024 µM
# Protocol: as §1
# VX-11e = compound: Cc1cnc(Nc2ccc(F)cc2Cl)nc1-c1c[nH]c(C(=O)N[C@H](CO)c2cccc(Cl)c2)c1 [VX-11e]; settings: top dose 5.12 µM; top dose inferred
# Protocol: as §1
# TG101348 = compound: Cc1cnc(Nc2ccc(OCCN3CCCC3)cc2)nc1Nc1cccc(S(=O)(=O)NC(C)(C)C)c1 [TG101348]; settings: top dose 10.24 µM
# Protocol: as §1
# Dimethyloxalylglycine = compound: COC(=O)CNC(=O)C(=O)OC [Dimethyloxalylglycine]; settings: top dose 4000 µM; top dose inferred
# Protocol: as §1
# Vismodegib = compound: CS(=O)(=O)c1ccc(C(=O)Nc2ccc(Cl)c(-c3ccccn3)c2)c(Cl)c1 [Vismodegib]; settings: top dose 10 µM; top dose inferred
# Protocol: as §1
# CCT018159 = compound: CCc1cc(-c2n[nH]c(C)c2-c2ccc3c(c2)OCCO3)c(O)cc1O [CCT018159]; settings: top dose 10 µM; top dose inferred
# Protocol: as §1
Cell Line,AUC (OSI-027),IC50 (OSI-027),AUC (BIX02189),IC50 (BIX02189),AUC (UNC1215),IC50 (UNC1215),AUC (17-AAG),IC50 (17-AAG),AUC (Doxorubicin),IC50 (Doxorubicin),AUC (VX-11e),IC50 (VX-11e),AUC (TG101348),IC50 (TG101348),AUC (Dimethyloxalylglycine),IC50 (Dimethyloxalylglycine),AUC (Vismodegib),IC50 (Vismodegib),AUC (CCT018159),IC50 (CCT018159)
"SISO (cervix, adherent)",0.839,12.9 µM,0.984,> 20 µM,0.987,> 1 µM,0.754,0.324 µM,0.513,0.0694 µM,0.981,> 5.12 µM,0.89,> 10.2 µM,0.436,168 µM,0.988,> 10 µM,–,–
"DOHH-2 (B-cell lymphoma, suspension)",–,–,–,–,–,–,0.977,> 1 µM,0.327,0.0214 µM,–,–,–,–,0.504,256 µM,0.977,> 10 µM,–,–
"G-292 Clone A141B1 (osteosarcoma, adherent)",0.743,9.69 µM,0.946,> 20 µM,0.972,> 1 µM,0.893,> 1 µM,0.877,> 1.02 µM,0.976,> 5.12 µM,0.655,2.23 µM,0.384,99.3 µM,0.975,> 10 µM,–,–
"SW13 (adrenal gland, adherent)",0.923,> 20 µM,0.988,> 20 µM,0.986,> 1 µM,0.942,> 1 µM,0.62,0.138 µM,0.988,> 5.12 µM,0.986,> 10.2 µM,0.617,526 µM,0.97,> 10 µM,–,–
"DB (B-cell lymphoma, suspension)",0.497,1.23 µM,0.796,10.8 µM,0.97,> 1 µM,0.891,> 1 µM,0.638,–,0.878,> 5.12 µM,0.751,3.76 µM,0.278,53.5 µM,0.92,> 10 µM,–,–
"PANC-03-27 (pancreas, adherent)",0.499,1.24 µM,0.907,> 20 µM,0.987,> 1 µM,0.6,0.115 µM,0.355,0.0261 µM,0.921,> 5.12 µM,0.915,> 10.2 µM,0.649,628 µM,0.987,> 10 µM,–,–
"SNU-182 (liver, adherent)",0.783,8.82 µM,0.958,> 20 µM,0.979,> 1 µM,0.844,0.766 µM,0.508,0.0675 µM,0.984,> 5.12 µM,0.771,4.1 µM,0.438,168 µM,0.969,> 10 µM,–,–
"SNU-449 (liver, adherent)",0.278,0.275 µM,0.941,> 20 µM,0.972,> 1 µM,0.979,> 1 µM,0.821,0.664 µM,0.963,> 5.12 µM,0.875,> 10.2 µM,0.338,84.9 µM,0.986,> 10 µM,–,–
"SKG-IIIa (cervix, adherent)",0.979,> 20 µM,0.98,> 20 µM,0.967,> 1 µM,0.505,0.0646 µM,0.718,0.331 µM,0.982,> 5.12 µM,0.981,> 10.2 µM,0.497,245 µM,0.98,> 10 µM,–,–
"PFSK-1 (medulloblastoma, adherent)",0.431,0.799 µM,0.96,> 20 µM,–,–,0.883,> 1 µM,0.752,0.357 µM,0.982,> 5.12 µM,0.808,5.71 µM,0.546,336 µM,0.977,> 10 µM,–,–
"JAR (urogenital system, adherent)",0.665,3.56 µM,0.961,> 20 µM,0.981,> 1 µM,0.943,> 1 µM,0.816,0.552 µM,0.984,> 5.12 µM,0.753,3.35 µM,0.881,> 4000 µM,–,–,0.868,8.78 µM
"BHY (head and neck, adherent)",0.544,1.65 µM,0.973,> 20 µM,0.985,> 1 µM,0.725,0.273 µM,0.388,0.0315 µM,0.901,> 5.12 µM,0.859,8.5 µM,0.574,399 µM,–,–,0.963,> 10 µM
"MZ7-mel (melanoma, adherent)",0.626,2.82 µM,0.894,> 20 µM,0.985,> 1 µM,0.606,0.124 µM,0.588,–,0.536,0.402 µM,0.981,> 10.2 µM,0.402,133 µM,–,–,0.971,> 10 µM
"KOPN-8 (B-cell leukaemia, suspension)",0.138,0.118 µM,0.866,13.7 µM,0.985,> 1 µM,0.739,0.267 µM,0.398,0.0351 µM,0.873,3.77 µM,0.523,0.733 µM,0.738,1060 µM,0.967,> 10 µM,–,–
"MS751 (cervix, adherent)",0.926,> 20 µM,0.987,> 20 µM,0.989,> 1 µM,0.651,0.158 µM,0.774,0.371 µM,0.987,> 5.12 µM,0.938,> 10.2 µM,0.529,298 µM,0.986,> 10 µM,–,–
"Hep 3B2_1-7 (liver, adherent)",0.837,13.4 µM,0.975,> 20 µM,0.985,> 1 µM,0.891,> 1 µM,0.411,0.0365 µM,0.694,1.12 µM,0.942,> 10.2 µM,0.347,94 µM,0.976,> 10 µM,–,–
"LC-2-ad (lung adenocarcinoma, adherent)",0.481,1.11 µM,0.916,> 20 µM,0.984,> 1 µM,0.633,0.147 µM,0.212,0.00886 µM,0.783,2.22 µM,0.593,1.16 µM,0.206,33 µM,–,–,0.951,> 10 µM
"NCI-H2085 (lung adenocarcinoma, adherent)",0.444,0.866 µM,0.948,> 20 µM,0.985,> 1 µM,0.962,> 1 µM,0.68,0.214 µM,0.956,> 5.12 µM,0.912,> 10.2 µM,0.445,174 µM,–,–,0.96,> 10 µM
"HT-144 (melanoma, adherent)",0.979,> 20 µM,0.971,> 20 µM,0.982,> 1 µM,0.492,0.0592 µM,0.211,0.00801 µM,0.948,> 5.12 µM,0.984,> 10.2 µM,0.466,200 µM,–,–,0.931,> 10 µM
"BPH-1 (prostate, adherent)",0.195,0.137 µM,0.933,> 20 µM,0.979,> 1 µM,0.651,0.172 µM,0.382,0.0293 µM,0.59,0.579 µM,0.522,0.738 µM,0.539,323 µM,–,–,0.853,9.11 µM
"A172 (glioma, adherent)",0.394,0.646 µM,0.963,> 20 µM,0.987,> 1 µM,0.701,0.224 µM,0.521,0.0729 µM,0.989,> 5.12 µM,0.859,8.02 µM,0.62,527 µM,–,–,0.85,7.17 µM
"OAW-28 (ovary, adherent)",0.733,7.02 µM,0.908,> 20 µM,0.98,> 1 µM,0.979,> 1 µM,0.666,0.211 µM,0.816,3.84 µM,0.849,> 10.2 µM,0.734,1420 µM,–,–,0.959,> 10 µM
"TCCSUP (bladder, adherent)",0.784,9.81 µM,0.981,> 20 µM,0.981,> 1 µM,0.506,0.065 µM,0.803,0.595 µM,0.985,> 5.12 µM,0.932,> 10.2 µM,0.591,459 µM,–,–,0.896,> 10 µM
"MHH-NB-11 (neuroblastoma, adherent)",0.743,6.74 µM,0.859,19.3 µM,–,–,0.932,> 1 µM,0.691,0.234 µM,0.893,> 5.12 µM,0.758,3.87 µM,0.867,> 4000 µM,0.932,> 10 µM,–,–
"MKN1 (stomach, adherent)",0.766,7.77 µM,0.972,> 20 µM,0.985,> 1 µM,0.832,0.684 µM,0.291,0.0159 µM,0.986,> 5.12 µM,0.86,9.31 µM,0.773,1640 µM,–,–,0.913,> 10 µM
"H-EMC-SS (chondrosarcoma, adherent)",0.617,2.89 µM,0.78,10.9 µM,0.979,> 1 µM,0.954,> 1 µM,0.677,0.233 µM,0.62,0.757 µM,0.854,> 10.2 µM,0.689,1000 µM,–,–,0.882,> 10 µM
"IGR-37 (melanoma, adherent)",–,–,–,–,0.988,> 1 µM,0.292,0.0172 µM,0.478,0.0561 µM,0.68,0.969 µM,0.989,> 10.2 µM,–,–,0.988,> 10 µM,0.895,> 10 µM
